In all, about 310,000 compounds went through this assay and about 2,200 (0.71%) showed an effect of 50% or more. Effects have a minus sign here. The list shows a part of the results.

This is an account of results in publication PMC4336329 (PLoS ONE, 2015).

This assay deals with human ether-à-go-go-related gene (hERG) potassium channel (human, UniProt Q12809). Nature of the assay: primary screen, population patch clamp on CHO cells stably expressing hERG.
Chain of human ether-à-go-go-related gene (hERG) potassium channel (Q12809 whole entry, looked up): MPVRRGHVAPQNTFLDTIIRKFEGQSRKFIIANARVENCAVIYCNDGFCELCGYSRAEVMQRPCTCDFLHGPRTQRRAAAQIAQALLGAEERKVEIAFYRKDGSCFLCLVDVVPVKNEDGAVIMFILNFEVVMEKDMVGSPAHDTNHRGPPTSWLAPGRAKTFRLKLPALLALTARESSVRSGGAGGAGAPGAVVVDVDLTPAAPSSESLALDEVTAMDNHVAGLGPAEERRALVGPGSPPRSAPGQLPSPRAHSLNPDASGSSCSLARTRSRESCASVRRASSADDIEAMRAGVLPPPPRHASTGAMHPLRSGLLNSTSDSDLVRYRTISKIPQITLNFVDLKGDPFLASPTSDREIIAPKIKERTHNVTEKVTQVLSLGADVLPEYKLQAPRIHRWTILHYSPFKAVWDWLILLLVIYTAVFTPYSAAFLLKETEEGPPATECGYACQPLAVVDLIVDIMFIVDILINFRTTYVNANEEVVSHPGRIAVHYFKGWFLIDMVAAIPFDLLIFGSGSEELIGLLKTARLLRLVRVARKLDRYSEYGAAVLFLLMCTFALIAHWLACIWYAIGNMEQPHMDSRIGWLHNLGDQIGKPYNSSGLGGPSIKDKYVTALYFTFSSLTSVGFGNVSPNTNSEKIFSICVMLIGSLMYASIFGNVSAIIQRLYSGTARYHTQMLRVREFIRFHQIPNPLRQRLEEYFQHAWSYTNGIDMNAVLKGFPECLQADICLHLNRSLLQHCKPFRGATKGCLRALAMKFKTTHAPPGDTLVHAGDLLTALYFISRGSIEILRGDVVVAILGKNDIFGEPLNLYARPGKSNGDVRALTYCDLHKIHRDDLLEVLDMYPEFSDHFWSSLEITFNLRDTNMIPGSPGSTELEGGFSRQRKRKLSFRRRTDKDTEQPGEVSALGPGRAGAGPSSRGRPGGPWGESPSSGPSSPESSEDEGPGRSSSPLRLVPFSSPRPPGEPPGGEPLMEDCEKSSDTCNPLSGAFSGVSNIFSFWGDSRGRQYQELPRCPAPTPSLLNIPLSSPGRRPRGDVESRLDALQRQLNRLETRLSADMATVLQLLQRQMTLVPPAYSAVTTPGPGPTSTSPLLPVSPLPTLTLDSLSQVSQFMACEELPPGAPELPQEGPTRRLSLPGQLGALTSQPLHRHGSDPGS
With `O=C1C=C(c2ccc(OC(F)(F)F)cc2)C[C@@H](c2ccc(Cl)cc2)C1`, the “hERG current change (%, negative = inhibition) at 1uM” value is listed as 12%.

For the compound `CC1CC(C)CN(C(=O)Cn2c(=O)n(CCCCC(=O)NC3CCCC3)c(=O)c3ccccc32)C1` (centres unmarked), the “hERG current change (%, negative = inhibition) at 1uM” value amounted to 10.7%. For the compound `CC(c1cccnc1)N(CCN(C)C)C(=O)Nc1ccc(Cl)c(Cl)c1` (centres unmarked), the “hERG current change (%, negative = inhibition) at 1uM” value is reported as -3.96%.

Consider `COc1ccc(CCC(=O)NCCS(=O)(=O)N2CCN(c3ccccc3F)CC2)cc1`, for which the “hERG current change (%, negative = inhibition) at 1uM” value was -14%.

As for `Cc1cccc(NC(=O)c2cnc3sccn3c2=O)n1`, the “hERG current change (%, negative = inhibition) at 1uM” value turned out to be 12.3%. As to `Cc1cc(=O)oc2cc(OC(C)C(=O)O)c(Cl)cc12` (centres unmarked), the “hERG current change (%, negative = inhibition) at 1uM” value is recorded as -4.23%. `COCc1ccc(C(=O)N2CCc3c([nH]c4ccccc34)C2c2ccccn2)s1` (centres unmarked): the “hERG current change (%, negative = inhibition) at 1uM” value was determined as 9.68%. In the case of `CCOC(=O)c1c(C)oc2cc(Br)c(OC(=O)N3CCOCC3)cc12` it was 2.61%; in that of `O=c1ccc(-c2ccc(S(=O)(=O)Nc3cccc([N+](=O)[O-])c3)s2)n[nH]1`, 5.56%.

`Cc1ccc(NC(=O)NC2CCN(S(=O)(=O)c3ccc(F)cc3)CC2)cc1`: the “hERG current change (%, negative = inhibition) at 1uM” value is listed as 5.63%. For the compound `Cc1c([N+](=O)[O-])c([N+](=O)[O-])nn1CC(=O)N1CCCCC1`, the “hERG current change (%, negative = inhibition) at 1uM” value is listed as 2.69%. The same measure for `COCCCn1c(=O)/c(=C\c2ccccc2OC(F)F)s/c1=C(/C#N)C(N)=O`: 6.82%. In the case of `Clc1ccccc1OCCCOc1cccc2cccnc12` it was 12%; in that of `Cc1nn(C)c(C)c1S(=O)(=O)N1CCc2ccccc21`, 1.45%; in that of `CCc1c(C(=O)N2CCOCC2)csc1C`, -3.49%. In the case of `Nc1nc(N(Cc2ccccc2)Cc2ccccc2)nc(C(F)(F)F)n1` it was 3.29%. In the case of `COc1ccccc1N1CCN(C(=O)c2ccc([N+](=O)[O-])s2)CC1`, the “hERG current change (%, negative = inhibition) at 1uM” value is given as -12.8%.

`CC(C)(CNC(=O)c1cc(Cl)c(O)c(Cl)c1)N1CCCCC1`: the “hERG current change (%, negative = inhibition) at 1uM” value is 11.1%. `O=C1C(=O)N(Cc2cccnc2)C(c2cccc(O)c2)/C1=C(\O)c1ccc2c(c1)OCCO2` (centres unmarked): the “hERG current change (%, negative = inhibition) at 1uM” value was 9.99%. Consider `C[C@H]1CCC[C@@]2(O[C@H](CCO)C[C@H](O)[C@H]2O)O1`, for which the “hERG current change (%, negative = inhibition) at 1uM” value worked out at 6.6%.

Turning to `CC1(C)CC(=O)C(C2c3ccccc3Oc3ccccc32)C(=O)C1`, the “hERG current change (%, negative = inhibition) at 1uM” value worked out at 15%. Take `O=C(CN(C(=O)CCC(=O)Nc1ccccn1)c1ccc2c(c1)OCO2)NCc1ccco1`: the “hERG current change (%, negative = inhibition) at 1uM” value is reported as -3.07%.

`COc1ccc(NC(=O)c2cc(-c3cccnc3)nc3c(C)c(C)ccc23)c(OC)c1`: the “hERG current change (%, negative = inhibition) at 1uM” value turned out to be 0.459%. The same measure for `Clc1cccc(OCCCCCN2CCOCC2)c1`: 7.88%. The same measure for `Cc1nc2ccc(NC(=O)c3ccc(=O)[nH]c3)cc2s1`: 17.9%; for `O=C(NN=C1CCCCC1)c1cc(-c2ccccc2)n[nH]1`: 15.3%; for `Cc1ccc2[nH]c(C)c(CCNC(=O)c3cc4cc([N+](=O)[O-])ccc4oc3=O)c2c1`: 12.6%.

On to `O/N=C\c1cccn1-c1nccs1`, for which the “hERG current change (%, negative = inhibition) at 1uM” value is reported as -6.56%. With `NS(=O)(=O)c1ccc(NC(=O)CSc2ncnc3ccccc23)cc1`, the “hERG current change (%, negative = inhibition) at 1uM” value is listed as 10.7%. The same measure for `CNC(=S)N1CCN(c2ccccc2OC)CC1`: 14.4%; for `Cc1nnc(SCC(=O)NCC2CCCO2)n1-c1ccccc1` (centres unmarked): -0.0954%; for `Cc1ccccc1C(=O)N1CCC(C(=O)Nc2cc(C(F)(F)F)ccc2N2CCCC2)CC1`: 3.29%. As to `COc1ccc(C(=O)NCC(c2cccs2)N2CCc3ccccc32)c(OC)c1` (centres unmarked), the “hERG current change (%, negative = inhibition) at 1uM” value is given as 10.6%.

In the case of `O=C(COc1ccccc1Cl)Nc1ccc2c(c1)OCCO2`, the “hERG current change (%, negative = inhibition) at 1uM” value is 9.38%. Turning to `Cc1nn(-c2ccccc2)c(Cl)c1/C=N/Nc1ccc(Cl)c(C(=O)O)c1`, the “hERG current change (%, negative = inhibition) at 1uM” value was found to be 11.7%.

As to `O=C(OCC(=O)N1CCN(C(=O)c2ccco2)CC1)c1cc(S(=O)(=O)Nc2ccc(Cl)cc2)ccc1O`, the “hERG current change (%, negative = inhibition) at 1uM” value was -4.59%. The same measure for `Cc1cc(NC(=O)CCNS(=O)(=O)c2cc(Br)cnc2N)ccc1Br`: 3.77%; for `Cc1ccc(-c2nc(N)c3c(-c4ccc(C)cc4)nn(C(C)(C)C)c3n2)cc1`: 7.87%. In the case of `CCN(C(=O)COC(=O)c1sccc1C)c1c(N)n(Cc2ccccc2)c(=O)[nH]c1=O` it was -2.18%. The same measure for `Cc1ccc(C)c(S(=O)(=O)NCc2ccc(C(=O)N3CCCCCC3)cc2)c1`: 13.5%; for `CCN(CC)C(=O)COc1ccc(C=O)cc1OC`: -1.25%. Regarding `C=CCOc1ccc(Cl)cc1CNC1CCCC1.Cl`, the “hERG current change (%, negative = inhibition) at 1uM” value was found to be 1.86%. With `O=[N+]([O-])c1cccc(-c2nc(-c3ccccn3)no2)c1`, the “hERG current change (%, negative = inhibition) at 1uM” value came to 9.33%. The same measure for `CC1CCN(C(=O)c2ccccc2NC(=O)c2cccs2)CC1`: -3.27%; for `CC1=CC(C/C(C)=C/COc2ccc3ccc(=O)oc3c2)OC1=O` (centres unmarked): 10.5%; for `COc1ccccc1NC(=O)c1ccc(-c2ccccc2[N+](=O)[O-])o1`: 11.6%. The same measure for `O=C(Nc1cccc(Cl)c1Cl)c1ccccc1NC(=O)C1CC=CCC1C(=O)O` (centres unmarked): 8.07%; for `COc1cccc(NC(=S)N(Cc2cccc(Br)c2)CC2CCC(C(=O)O)CC2)c1` (centres unmarked): 12.8%.

On to `CCc1ccc(NC(=O)Cn2nnc(-c3ccc(C)cc3-n3cnnn3)n2)cc1`, for which the “hERG current change (%, negative = inhibition) at 1uM” value was 12.5%. In the case of `Cc1cc(OC(C)C(=O)N[C@H](C(=O)O)c2ccccc2)c2c3c(c(=O)oc2c1)CCC3` (some centres unmarked) it was -4.53%. Take `CCCCCCn1c(N2CCCC2)nc2c1c(=O)[nH]c(=O)n2C`: the “hERG current change (%, negative = inhibition) at 1uM” value is on record as -7.89%. In the case of `Cc1nn(CC2CCCCC2)c(N)c1-c1ccccc1` it was -1.03%; in that of `O=C(CCNS(=O)(=O)c1cccc2nonc12)NC1CCCCCC1`, 7.69%. In the case of `CC(C)CCNC(=O)c1cc(-c2cccs2)nc2ccccc12` it was 2.51%; in that of `CC(=O)Nc1cccc(OCc2c(F)cccc2Cl)c1`, 4.98%; in that of `Cc1cc(C(=O)N/N=C/c2ccc(OCc3ccccc3)cc2)c(C)o1`, 14.6%.
